Measurements published in US20140287471A1, “VARIANT CBH I POLYPEPTIDES WITH REDUCED PRODUCT INHIBITION” (BP CORPORATION NORTN AMERICA INC., priority 2011, published 2014).

Legend:
Type in all cases: biochemical
[1] = 4-MUL assay with and without cellobiose (Example 1); details: for product tolerance in library screening (4-MUL): 60-member BD29555 library, presence and absence of 250 mg/L (730 mM) cellobiose, gluconolactone
Procedure: This assay measures the activity of CBH I on the fluorogenic substrate 4-MUL (also known as MUL). Assays were run in a costar 96-well black bottom plate, where reactions were initiated by the addition of 4-MUL to enzyme in buffer (2 mM 4-MUL in 200 mM MES pH 6). Enzymatic rates were monitored by fluorescent readouts over five minutes on a SPECTRAMAX™ plate reader (ex/em 365/450 nm). Data in the linear range was used to calculate initial rates (Vo).
(§1) Tolerance to cellobiose (or inhibition caused by cellobiose) was tested in two ways in the CBH I assays. A direct-dose tolerance method can be applied to all of the CBH I assays (i.e., 4-MUL, PASC, and/or bagasse assays), and entails the exogenous addition of a known amount of cellobiose into assay mixtures. A different indirect method entails the addition of an excess amount of β-glucosidase (BG) to PASC and bagasse assays (typically, 1 mg β-glucosidase/g solids loaded). BG will enzymatically hydrolyze the cellobiose generated during these assays; therefore, CBH I activity in the presence of BG can be taken as a measure of activity in the absence of cellobiose. Furthermore, when activity in the presence and absence of BG are similar, this indicates tolerance to cellobiose.
The wild type CBH I polypeptide BD29555 was mutagenized to identify variants with improved product tolerance. A small (60-member) library of BD29555 variants was designed to identify variant CBH I polypeptides with reduced product inhibition. This product-release-site library was designed based on residues directly interacting with the cellobiose product in an attempt to identify variants with weakened interactions with cellobiose from which the product would be released more readily than the wild type enzyme. The 60-member evolution library contained wild-type residues and mutations at positions R273, W405, and R422 of BD29555 (SEQ ID NO:1), and included the following substitutions: R273 (WT), R273Q, R273K, R273A, W405 (WT), W405Q, W405H, R422 (WT), R422Q, R422K, R422L, and R422E (4 variants at position 273×3 variants at position 405×5 variants at position 422 equals 60 variants in total). All members of the library were screened using the 4-MUL assay in the presence and absence of 250 mg/L cellobiose and using gluconolactone to inhibit any BG activity. […] Due to low expression, other variants were not tested further.
Cellobiose dose response curves of the wild-type and R273K/R422K variant of BD29555 were obtained during the 4-MUL assay. Enzyme rates (Vo) were measured in the presence of different concentrations of cellobiose (200 mM MES pH 6, 25° C.). Rates were measured in quadruplicate.

[2] = Saccharification assay (bagasse assay) with and without β-glucosidase (Example 1)
Procedure: This assay measures the activity of CBH I on bagasse, a lignocellulosic substrate. Reactions were run in 10 ml vials with 5% dilute acid pretreated bagasse (250 mg solids per 5 ml reaction). Each reaction contained 4 mg CBH I enzyme/g solids, 200 mM MES pH 6, kanamycin, and chloramphenicol. Reactions were incubated at 35° C. in hybridization incubators (Robbins Scientific), rotating at 20 RPM. Time points were taken by transferring a sample of homogenous slurry (150 μl) into a 96-well deep well plate and quenching the reaction with stop buffer (450 μl of 500 mM sodium carbonate, pH 10). Time point measurements were taken every 24 hours for 72 hours.
as §1

[3] = PASC assay, cellobiose dose-response (Example 1); details: FIG. 3
Procedure: This assay measures the activity of CBH I using PASC as the substrate. During the assay, the concentration of PASC is monitored by a fluorescent signal derived from calcofluor binding to PASC (ex/em 365/440 nm). The assay is initiated by mixing enzyme (15 μl) and reaction buffer (85 μl of 0.2% PASC, 200 mM MES, pH 6), and then incubating at 35° C. while shaking at 225 RPM. After 2 hours, one reaction volume of calcofluor stop solution (100 μg/ml in 500 mM glycine pH 10) is added and fluorescence read-outs obtained (ex/em 365/440 nm).
as §1

[4] = 4-MUL assay with and without cellobiose (Example 1)
[5] = BD29555 and variants, [(activity without BG)/(activity with BG)]*100, percent conversion of glucan after 72 hours
[6] = BD29555 and variants, [(activity with cellobiose)/(activity without cellobiose)]*100, 250 mg/L cellobiose

B1: R273A: BD29555 (SEQ ID NO:1) library variant with substitution R273A (protein)
chain: MSALNSFNMYKSALILGSLLATAGAQQIGTYTAETHPSLSWSTCKSGGSCTTNSGAITLDANWRWVHGVNTSTNCYTGNTWNTAICDTDASCAQDCALDGADYSGTYGITTSGNSLRLNFVTGSNVGSRTYLMADNTHYQIFDLLNQEFTFTVDVSHLPCGLNGALYFVTMDADGGVSKYPNNKAGAQYGVGYCDSQCPRDLKFIAGQANVEGWTPSSNNANTGLGNHGACCAELDIWEANSISEALTPHPCDTPGLSVCTTDACGGTYSSDAYAGTCDPDGCDFNPYRLGVTDFYGSGKTVDTTKPITVVTQFVTDDGTSTGTLSEIRRYYVQNGVVIPQPSSKISGVSGNVINSDFCDAEISTFGETASFSKHGGLAKMGAGMEAGMVLVMSLWDDYSVNMLWLDSTYPTNATGTPGAARGSCPTTSGDPKTVESQSGSSYVTFSDIRVGPFNSTFSGGSSTGGSSTTTASGTTTTKASSTSTSSTSTGTGVAAHWGQCGGQGWTGPTTCASGTTCTVVNPYYSQCL
modifications: Obtained from an Environmental Sample
For B1, the “product tolerance in library screening (4-MUL)” value (from here on “product tolerance”) [1] was “enhanced product tolerance”.

B2: R273Q: BD29555 (SEQ ID NO:1) library variant with substitution R273Q (protein)
chain: MSALNSFNMYKSALILGSLLATAGAQQIGTYTAETHPSLSWSTCKSGGSCTTNSGAITLDANWRWVHGVNTSTNCYTGNTWNTAICDTDASCAQDCALDGADYSGTYGITTSGNSLRLNFVTGSNVGSRTYLMADNTHYQIFDLLNQEFTFTVDVSHLPCGLNGALYFVTMDADGGVSKYPNNKAGAQYGVGYCDSQCPRDLKFIAGQANVEGWTPSSNNANTGLGNHGACCAELDIWEANSISEALTPHPCDTPGLSVCTTDACGGTYSSDQYAGTCDPDGCDFNPYRLGVTDFYGSGKTVDTTKPITVVTQFVTDDGTSTGTLSEIRRYYVQNGVVIPQPSSKISGVSGNVINSDFCDAEISTFGETASFSKHGGLAKMGAGMEAGMVLVMSLWDDYSVNMLWLDSTYPTNATGTPGAARGSCPTTSGDPKTVESQSGSSYVTFSDIRVGPFNSTFSGGSSTGGSSTTTASGTTTTKASSTSTSSTSTGTGVAAHWGQCGGQGWTGPTTCASGTTCTVVNPYYSQCL
modifications: Obtained from an Environmental Sample
With B2 the “product tolerance” value [1] was “enhanced product tolerance”.

B3: R273K/R422K: BD29555 with the substitutions R273K/R422K (correspond to R268K/R411K of T. reesei CBH I) (protein)
chain: MSALNSFNMYKSALILGSLLATAGAQQIGTYTAETHPSLSWSTCKSGGSCTTNSGAITLDANWRWVHGVNTSTNCYTGNTWNTAICDTDASCAQDCALDGADYSGTYGITTSGNSLRLNFVTGSNVGSRTYLMADNTHYQIFDLLNQEFTFTVDVSHLPCGLNGALYFVTMDADGGVSKYPNNKAGAQYGVGYCDSQCPRDLKFIAGQANVEGWTPSSNNANTGLGNHGACCAELDIWEANSISEALTPHPCDTPGLSVCTTDACGGTYSSDKYAGTCDPDGCDFNPYRLGVTDFYGSGKTVDTTKPITVVTQFVTDDGTSTGTLSEIRRYYVQNGVVIPQPSSKISGVSGNVINSDFCDAEISTFGETASFSKHGGLAKMGAGMEAGMVLVMSLWDDYSVNMLWLDSTYPTNATGTPGAAKGSCPTTSGDPKTVESQSGSSYVTFSDIRVGPFNSTFSGGSSTGGSSTTTASGTTTTKASSTSTSSTSTGTGVAAHWGQCGGQGWTGPTTCASGTTCTVVNPYYSQCL
modifications: Obtained from an Environmental Sample
For B3, the “Tolerance to cellobiose accumulation % Activity in Bagasse Assay (+/−BG)” value [2, 5] was 84%, the “sensitivity to cellobiose in bagasse assay (absence vs. presence of BG)” value ([2]; compared with wild type) was “less sensitive to the presence of cellobiose than the wild type” and the “tolerance to cellobiose in dose-response (4-MUL assay)” value ([1]; 200 mM MES pH 6, 25° C., FIG. 1B) was “tolerant to cellobiose up to 250 mg/L”. For the same molecule, the “product tolerance” value [1] was “enhanced product tolerance; also recorded: greatest activity, expression, and cellobiose tolerance”, the “inhibition by cellobiose (PASC assay)” value ([3]; 10 g/L cellobiose) was “little inhibition” and the “Tolerance to 250 mg/L cellobiose % Activity in 4-MUL Assay (+/−Cellobiose)” value [4, 6] was 95%.

B4: BD29555: wild type CBH I polypeptide BD29555 (SEQ ID NO:1), species of origin unknown (protein)
chain: MSALNSFNMYKSALILGSLLATAGAQQIGTYTAETHPSLSWSTCKSGGSCTTNSGAITLDANWRWVHGVNTSTNCYTGNTWNTAICDTDASCAQDCALDGADYSGTYGITTSGNSLRLNFVTGSNVGSRTYLMADNTHYQIFDLLNQEFTFTVDVSHLPCGLNGALYFVTMDADGGVSKYPNNKAGAQYGVGYCDSQCPRDLKFIAGQANVEGWTPSSNNANTGLGNHGACCAELDIWEANSISEALTPHPCDTPGLSVCTTDACGGTYSSDRYAGTCDPDGCDFNPYRLGVTDFYGSGKTVDTTKPITVVTQFVTDDGTSTGTLSEIRRYYVQNGVVIPQPSSKISGVSGNVINSDFCDAEISTFGETASFSKHGGLAKMGAGMEAGMVLVMSLWDDYSVNMLWLDSTYPTNATGTPGAARGSCPTTSGDPKTVESQSGSSYVTFSDIRVGPFNSTFSGGSSTGGSSTTTASGTTTTKASSTSTSSTSTGTGVAAHWGQCGGQGWTGPTTCASGTTCTVVNPYYSQCL
modifications: Obtained from an Environmental Sample
With B4 the “Tolerance to cellobiose accumulation % Activity in Bagasse Assay (+/−BG)” value [2, 5] was 60%, the “Tolerance to cellobiose accumulation % Activity in Bagasse Assay (+/−BG)” value ([2]; T. reesei CBH I variants, activity without β-glucosidase (BG) relative to with BG) was 74% and the “IC50 of cellobiose (4-MUL assay)” value ([1]; 200 mM MES pH 6, 25° C., FIG. 1A) was 60 mg/L. For the same molecule, the “IC50 of cellobiose (PASC assay)” value [3] was 2200 mg/L, the “cellobiose concentration at which inhibition starts (PASC assay)” value [3] was “around 1 g/L” and the “Tolerance to 250 mg/L cellobiose % Activity in 4-MUL Assay (+/−Cellobiose)” value [4, 6] was 25%. The “Tolerance to 250 mg/L cellobiose % Activity in 4-MUL Assay (+/−Cellobiose)” value ([4]; T. reesei CBH I variants, activity with 250 mg/L cellobiose relative to without cellobiose) was 23%.

“Also recorded” adds a separate entry of the source.
